Data reported in the RNAGym collection of RNA variant scans (doi:10.1093/nar/gkz1192).
The source gives no read counts; variants with many changes may rest on few reads.

B1: CPEB3 Ribozyme (parent)
chain: UAACAGGGGGCCACAGCAGAAGCGUUCACGUCGCAGCCCCUGUCAGAUUCUGGUGAAUCUGCGAAUUCUGCUGUAUAUCUC

Variants of: B1
Assay: self-cleavage, relative activity (ratio to wild type); higher = more cleavage; in vitro, sequencing
How it was run: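 Barcoded CPEB3 ribozyme mutants, produced by rounds of error-prone PCR, self-cleaved while being transcribed with T7 RNA polymerase for 5 hours at 37°C and during a subsequent 15 min DNase I step before EDTA was added. Sequencing of template-switched cDNA on Illumina gave cleaved and total reads, and DNA sequencing assigned barcodes to variants. Each variant's relative activity is its cleaved/total read fraction divided by the unmutated ribozyme's fraction, averaged across three batches. A variant needed a minimum of 5 reads.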

Row | Variant | self-cleavage
1 | A28U U31A A35G U48C | 0.5
2 | A28U U31A A45G U69A U78A | 0.07
3 | A28U U31A A47U U66C | 0.08
4 | A28U U31A A64G C71G | 0.06
5 | A28U U31A C32A U76C | 0.22
6 | A28U U31A C50U | 0.48
7 | A28U U31A U41C A64G | 0.24
8 | A28U U31A U54A A64G | 0.19
9 | A28U U31A U54C C81U | 0.45
10 | A28U U31A U60A | 0.22
11 | A28U U31A U72G | 0.42
12 | A28U U31A U78A | 0.59
13 | A28U U31C A45G U49A U54C U66C | 0.2
14 | A28U U31C A47G | 0.38
15 | A28U U31C A56G U80C | 0.43
16 | A28U U31C A64G U66C | 0.12
17 | A28U U31C C39U A56U U80C | 0.19
18 | A28U U31C C40A U41A U67C | 0.07
19 | A28U U31C G33C | 0.08
20 | A28U U31C U69C | 0.39
21 | A28U U31C U76A | 0.6
22 | A28U U31G A35C C40A U43C A57G | 0.1
23 | A28U U31G A35U A56G U67C U72C | 0.04
24 | A28U U41A A47G U67C | 0.12

Row | Variant | self-cleavage
25 | A28U U41A A57G | 0.38
26 | A28U U41A A57U | 0.2
27 | A28U U41A C59U | 0.26
28 | A28U U41A U43A U48C A65G U80C | 0.09
29 | A28U U41C A45G A64U | 0.12
30 | A28U U41C A47G A56G | 0.62
31 | A28U U41C A57G | 0.77
32 | A28U U41C A64U U80C | 0.53
33 | A28U U41C C62U C71A | 0.09
34 | A28U U41C C68A U72A | 0.11
35 | A28U U41C G46U U67C U74C | 0.14
36 | A28U U41C G61A U78C | 0.47
37 | A28U U41C U48C | 0.83
38 | A28U U41C U48C G63U U66C U67C U78C | 0.1
39 | A28U U41C U48C U76A A77G | 0.23
40 | A28U U41C U51A A57G U58C | 0.24
41 | A28U U41C U51A U67A U72A U80C | 0.29
42 | A28U U41C U58A U60C A65G A75G A77C | 0.05
43 | A28U U41C U67A U69C | 0.36
44 | A28U U41C U67C | 0.18
45 | A28U U41C U72A | 0.85
46 | A28U U41C U74A | 0.64
47 | A28U U41G A45U A47U U66A U72C | 0.07
48 | A28U U43A A47U U80A | 0.37

Row | Variant | self-cleavage
49 | A28U U43A A56G U60G | 0.13
50 | A28U U43A A56G U67A U69C | 0.25
51 | A28U U43A U49C A64G U72A | 0.11
52 | A28U U43A U72C | 0.71
53 | A28U U43A U74C | 0.94
54 | A28U U43C A45G U67C U80A | 0.12
55 | A28U U43C A56G | 0.11
56 | A28U U43C A64G U80C | 0.46
57 | A28U U43C A65G | 0.21
58 | A28U U43C C62U | 0.09
59 | A28U U43C C68G | 0.62
60 | A28U U43C G46U U58C | 0.13
61 | A28U U43C U58C U69C U78C | 0.08
62 | A28U U43G A56U | 0.11
63 | A28U U43G G46A A56U | 0.07
64 | A28U U48C A64G U69C | 0.1
65 | A28U U48C A64G U76A | 0.4
66 | A28U U48C A65G | 0.09
67 | A28U U48C A65U C68U U69A U74G | 0.06
68 | A28U U48C A77U | 0.36
69 | A28U U48C G55U A56G U72C | 0.12
70 | A28U U48C U72C U76A | 0.2
71 | A28U U48C U76A | 0.43
72 | A28U U48C U80C | 0.56

Row | Variant | self-cleavage
73 | A28U U48G C50U | 0.23
74 | A28U U49A A57G | 0.43
75 | A28U U49A A77G | 0.42
76 | A28U U49A U51A A57U | 0.08
77 | A28U U49A U51C U78C | 0.49
78 | A28U U49A U54C G63U | 0.45
79 | A28U U49C A57G U66A | 0.19
80 | A28U U49C A57U U80C | 0.33
81 | A28U U49C C68A C71G | 0.15
82 | A28U U49C C68A U69C U78C | 0.09
83 | A28U U49C U51A A56G A57G C71U U72G | 0.23
84 | A28U U49C U60C U72A | 0.16
85 | A28U U49C U80A | 0.43
86 | A28U U51A A75U | 0.59
87 | A28U U51A U54C A56U | 0.23
88 | A28U U51C U66C | 0.16
89 | A28U U51G A64G U69C U80A | 0.22
90 | A28U U51G U66C | 0.25
91 | A28U U51G U72C | 1.05
92 | A28U U54A A57G | 0.66
93 | A28U U54A A57U U72G | 0.27
94 | A28U U54A U76A U78C | 0.64
95 | A28U U54C A64G | 0.78
96 | A28U U54C A65G | 0.2

Row | Variant | self-cleavage
97 | A28U U54C G70U U72A | 0.15
98 | A28U U54C U58C G70A U72G | 0.09
99 | A28U U54C U60C | 0.21
100 | A28U U54C U69C | 0.33
101 | A28U U54G U72G U80C | 1.08
102 | A28U U58C U67C U69C | 0.1
103 | A28U U58C U80C | 0.29
104 | A28U U58G A75G | 0.3
105 | A28U U60A A64U | 0.26
106 | A28U U60A U67A | 0.12
107 | A28U U60A U80G | 0.39
108 | A28U U60C A65G U72G A75G | 0.1
109 | A28U U60C U67A G70A | 0.17
110 | A28U U60C U67C | 0.16
111 | A28U U60C U72C | 0.49
112 | A28U U60G C68A U74C | 0.15
113 | A28U U60G U69C | 0.15
114 | A28U U66C U69C | 0.19
115 | A28U U69A A77G U80C | 0.24
116 | A28U U69C A75G | 0.35
117 | A28U U69C U76C A77U | 0.25
118 | A28U U78C C81U | 0.99
119 | C29A A35G U69C U74C | 0.75
120 | C29A A35U A47G | 0.1

Row | Variant | self-cleavage
121 | C29A A35U A57G A64U U78C | 0.14
122 | C29A A45G U51C | 0.2
123 | C29A A47G U66A U72A | 0.15
124 | C29A A47U U78C | 0.2
125 | C29A A56G U72C | 0.6
126 | C29A A57G U58C U74A A75G | 0.11
127 | C29A A57U A75G | 0.13
128 | C29A A75C U76C | 0.36
129 | C29A C32U A45U C71U | 0.12
130 | C29A C34U U66C | 0.42
131 | C29A C37G A47G U48C U76A | 0.06
132 | C29A C37U A64G U66A U78C | 0.06
133 | C29A C40A U76C | 0.29
134 | C29A C62U U66C U69C U78C | 0.08
135 | C29A G33A A35G A65G U67C A77G | 0.08
136 | C29A G42A U48C U51A U76C U80C | 0.08
137 | C29A G42A U60C C62U | 0.39
138 | C29A U31C U43C A64G U66C G73A | 0.26
139 | C29A U31C U54A U60A U80C | 0.13
140 | C29A U31C U58A U78A | 0.17
141 | C29A U41A A57G | 0.23
142 | C29A U41A U60A | 0.27
143 | C29A U41C U43C U58A A64C U78A | 0.13
144 | C29A U43A A47G U60C U76C U80C | 0.07

Row | Variant | self-cleavage
145 | C29A U43A A57G | 0.22
146 | C29A U43C U54A | 0.42
147 | C29A U43C U69A A77G U78C | 0.1
148 | C29A U48A A56G | 0.32
149 | C29A U48C A65G | 0.14
150 | C29A U49C U80C | 0.12
151 | C29A U51A A57G A64G | 0.26
152 | C29A U51A U67C U80C | 0.14
153 | C29A U51A U69A | 0.09
154 | C29A U51C U67A | 0.18
155 | C29A U60C U80C | 0.31
156 | C29A U69A U80C | 0.12
157 | C29G A35C C50G U54A U58A U72A | 0.13
158 | C29G A35G U41C A64G U78C | 0.26
159 | C29G A35G U72A | 0.27
160 | C29G A35U A56U | 0.14
161 | C29G A47U U49C A64U U78C | 0.09
162 | C29G A47U U49C U60A U78C | 0.23
163 | C29G A47U U76G | 0.43
164 | C29G A57G A75U | 0.11
165 | C29G A57G U66C U72A U80A | 0.07
166 | C29G A57G U67A | 0.14
167 | C29G A57U U60A | 0.04
